Results reported in the supplement of paper PMC7335073.
Whole data set: some 4,100 sequences, median “relative CpG methylation activity (normalised to average over all NNNCGNNN flanks)” near 0.94, cut for the highest 2% near 1.9. This is one part of the list.

molecular target: DNMT3B catalytic domain (mouse) (UniProt O88509); test: relative CpG methylation activity (normalised to average over all NNNCGNNN flanks) (relative (1 = mean)); higher = more methylation of the central CpG; settings: system: in vitro, murine catalytic domain; CpG state: hemimethylated substrate pool; residues: 558-859
Experimental: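 Deep enzymology: a pool of dsDNA substrates with a central CpG flanked by 10 random nucleotides on each side was methylated by the murine DNMT3A or DNMT3B catalytic domain (0.8 mM SAM, 37 °C, 60 min). Methylation was then read out by hairpin ligation, bisulfite conversion and NGS. Values are the average methylation of each NNNCGNNN context (±3 flanks; the outer flanks are random and averaged over), normalised to the overall mean, so 1 = average activity.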

UniProt O88509, sequence (O88509 558-859): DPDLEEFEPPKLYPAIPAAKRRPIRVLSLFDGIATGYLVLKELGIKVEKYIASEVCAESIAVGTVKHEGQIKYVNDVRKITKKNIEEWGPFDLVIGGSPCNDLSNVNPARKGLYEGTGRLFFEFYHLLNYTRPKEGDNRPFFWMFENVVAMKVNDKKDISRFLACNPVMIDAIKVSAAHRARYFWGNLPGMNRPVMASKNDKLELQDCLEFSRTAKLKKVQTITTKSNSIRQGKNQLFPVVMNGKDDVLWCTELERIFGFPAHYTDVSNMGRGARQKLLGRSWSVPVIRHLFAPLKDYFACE

Sequence	relative CpG methylation activity
CTACGGCA	2.23
ATGCGTAG	0.627
CGGCGAGA	1
CCCCGGCT	2.05
CGCCGACC	0.849
GCACGAAT	1.31
CCACGCGA	0.831
GGTCGTCG	0.375
TAACGTTT	0.864
GCGCGCAC	0.678
GTTCGTGC	0.635
AATCGCAT	0.484
TTACGCAC	1.58
TAACGTTC	0.899
GCTCGCGT	0.5
TGCCGTTA	0.189
GTCCGGTA	1.27
TATCGGCT	1.8
TCTCGGAT	0.871
TGCCGATT	0.867
ATTCGAAT	1.28
TTCCGTCT	1.22
AGACGGCG	1.94
AGGCGTGG	0.149
ACACGTCA	1.08

Sequence	relative CpG methylation activity
GGACGTCT	0.49
AGTCGGAG	0.701
GTACGCTT	1.4
ATACGGGG	1.61
CGGCGTTG	0.273
AGACGGTG	1.51
TTCCGAGC	1.9
CACCGATC	1.71
GAACGCGC	1.42
TTACGCCC	1.66
TGCCGCGT	0.176
GCCCGTAA	0.412
CAGCGGTG	0.603
GGGCGAGT	1.12
CACCGTCT	0.628
CTACGGAC	1.64
GAGCGTTA	0.536
ACCCGAGC	1.75
CGTCGTCG	0.566
AGGCGAGG	0.885
TTGCGTCG	1.01
TGACGATT	1.54
CTCCGCGC	1.11
TCTCGTCA	0.921
AAACGCAC	1.13

Sequence	relative CpG methylation activity
GAGCGGAA	0.488
CAACGGCC	1.93
TAACGCAG	0.89
AAACGCGC	1.46
AGTCGTAC	0.709
GATCGGAT	0.566
GCCCGAAG	1.05
CTGCGGTA	1.52
GTGCGCCT	1.08
GGGCGTAC	0.51
AGGCGATT	1.28
AGACGACA	1.03
TAGCGAAG	0.804
CCCCGGGC	1.61
TGACGCAA	0.494
CACCGGCG	1.46
GTGCGAGG	1.37
CGACGTAG	0.608
ATCCGGAT	0.823
ATCCGGTA	1.23
TCGCGAGT	0.929
AGACGCAG	0.692
GCGCGTAG	0.603
TGACGTAC	0.995
AGGCGCGC	0.51

Sequence	relative CpG methylation activity
CGGCGCAC	0.407
TGCCGAGG	0.761
GCACGCTG	0.98
CTACGCTC	1.91
GTCCGTTG	0.423
ACCCGGCA	1.58
ATACGTTC	1.34
ATGCGCAT	0.608
AGTCGCGC	0.846
GGGCGGTC	1.1
TATCGGGC	1.71
CGCCGGTA	0.741
ACCCGTAT	0.451
GGGCGGTA	0.67
AGGCGGAA	0.276
TGTCGTCC	0.886
TGTCGTCG	0.432
TTCCGAGT	1.83
CGCCGACA	0.773
ACACGGTG	1.2
CCACGGTC	1.76
ATGCGGTT	1.06
ACACGGCA	1.89
CTCCGCTC	1.27
CTCCGGTA	1.72

Sequence	relative CpG methylation activity
GCTCGAGG	1.01
GTACGCAG	0.794
CGGCGGAG	0.317
AAACGCAT	0.997
ATGCGGCA	1.52
GATCGCTA	0.629
CAGCGCAC	0.598
GGACGAGG	1.41
GTCCGTTT	0.664
CCGCGGGG	0.959
TTCCGTTT	0.673
ATGCGCAG	0.568
CTGCGAGG	1.25
GTCCGCCA	1.02
AAACGTGA	0.629
GCTCGCCA	0.72
GGACGATT	1.32
TGACGACC	0.905
CGACGAAC	1.17
CGCCGGCC	1.22
TCACGAAA	1.39
GTCCGCCT	1.2
GAACGTTC	1.07
GAGCGTAC	0.826
AGCCGAAG	0.633

Sequence	relative CpG methylation activity
AGTCGTCG	0.57
TAACGGTT	1.38
ATGCGCAA	0.523
CAGCGGCT	1.17
TCCCGGAC	1.24
CGGCGTTA	0.375
TAACGTAC	1.33
CGGCGTGA	0.188
CGTCGGCA	1.59
CGTCGCAA	0.344
CACCGATA	1.48
AACCGGGC	0.932
CCTCGATT	1.35
CAGCGCAA	0.332
GCCCGTTA	0.489
CTACGGGT	1.94
GCTCGGTC	1.45
GCCCGAGC	1.61
ACGCGTAC	0.922
CATCGTCT	0.994
GACCGTCT	0.495
AAGCGTAT	0.561
AAGCGCTA	0.473
TTCCGCAT	0.754
CCTCGCCG	0.844

Sequence	relative CpG methylation activity
GTGCGATG	1.11
AACCGTAA	0.226
ACCCGCCA	0.845
CGCCGGAA	0.51
TGACGCGT	0.737
TGGCGGAA	0.496
CCCCGAGC	1.93
CTCCGGGC	2.05
GGGCGCCA	0.492
GAACGCGG	0.853
ACTCGACA	1.23
CGGCGTAG	0.466
CTACGATC	1.92
GCCCGTAC	1.01
ACCCGCAG	0.314
CACCGTGA	0.304
GCTCGGGG	1.29
CGGCGTAC	0.618
TTCCGGAT	1.22
GCACGTTG	0.737
TCACGCTC	1.4
GATCGGCA	1.83
TGTCGTCT	0.452
TTACGATG	1.53
TAACGAGA	1.72

Sequence	relative CpG methylation activity
AGCCGTTC	0.343
GGTCGGAC	0.72
CTTCGTAA	0.672
ACTCGATG	1.23
CTGCGATG	1.15
GCTCGCAA	0.333
TAACGGAT	1.01
AGACGGGC	1.32
TAACGCAT	0.869
CGACGAGG	1.21
TCTCGTAG	0.507
GATCGGAA	0.661
CTACGAGG	1.68
AAACGCGG	1.24
GTCCGCTT	0.914
GTACGGGA	1.73
GGACGTAG	0.511
ACACGACC	1.59
GACCGTAG	0.253
CAGCGTCC	0.859
GCCCGCCT	0.861
CGGCGTGG	0.219
TTTCGACC	1.74
GTACGCGG	1.53
TTTCGCAA	0.7

Sequence	relative CpG methylation activity
ATGCGCGT	0.658
TCCCGTCT	1.14
ATGCGTTA	0.562
ATACGGAG	1.21
AATCGAGA	1.7
CCGCGCTC	0.988
ATGCGAAC	1.3
TGGCGTAC	0.655
CGACGAGT	1.4
GCACGATC	1.71
CCGCGAAG	0.749
CGACGCCA	1.07
TTCCGGGT	1.7
GAACGCCG	1.23
TGACGGGG	1.08
CATCGGTA	1.26
AAACGGAT	0.919
TTCCGGTT	2.2
AAGCGCCC	0.778
GTACGAAA	1.8
TATCGTTA	0.337
TCTCGTGA	0.332
ACGCGCGA	0.411
AGACGGGT	0.883
TTTCGACG	1.48

Sequence	relative CpG methylation activity
CGACGGCT	1.25
GCTCGAGT	1.34
AGGCGTTT	0.321
GGACGTGT	0.376
CGACGTAA	0.604
ACTCGGTC	1.46
GGTCGGTA	0.868
GTCCGTGA	0.424
TATCGGAA	0.708
GCGCGGAG	0.421
GCGCGTCT	0.489
CGTCGCGA	0.356
CTACGTGC	1.27
GGCCGTCT	0.189
TCACGCCC	1.41
TCTCGCGC	0.78
TTCCGAAA	1.64
TCTCGCGT	0.567
GTCCGTGG	0.26
ATCCGACT	1.4
CGTCGTGG	0.229
CCCCGGTG	1.19
TCTCGTAC	0.984
CTCCGAAT	1.65
CCGCGTTC	0.83

Sequence	relative CpG methylation activity
GCCCGCGA	0.343
ATGCGACG	1.02
AGCCGTAA	0.107
ACGCGGCC	1.21
GTCCGGCC	1.77
GTGCGACT	0.786
TGTCGATA	1.31
TCGCGCCC	1.02
TTCCGACT	1.52
GGACGTCC	0.987
TGTCGATC	1.75
GAACGACT	1.42
TGACGGTC	1.79
GGACGTCG	0.538
CGTCGAGA	1.6
TATCGGTA	1.31
TGACGAAG	0.818
GCACGGGA	1.23
GATCGGGG	1.31
TAGCGTAT	0.712
CGTCGGGC	1.26
GGCCGCGA	0.185
CGGCGGCG	1.12
GGGCGCGA	0.153
ACTCGCAA	0.415

Sequence	relative CpG methylation activity
ATCCGCGC	0.826
GGGCGTTT	0.126
CGGCGTCC	0.628
AGTCGCCC	0.778
AGTCGGAT	0.542
CGGCGCCG	0.455
ACGCGTCA	0.64
CCTCGGCT	1.89
CTGCGGGA	1.38
ATTCGTGG	0.142
GACCGTGT	0.146
AGTCGAGC	1.75
GTGCGCGG	0.595
GCACGGGT	1.21
GGTCGGGT	1.56
ACGCGCTT	0.705
CACCGTAT	0.274
AAACGAAC	1.64
TACCGGGT	0.804
CGTCGGCT	1.46
TTGCGGTA	1.17
GGTCGGGA	0.713
TCTCGGGG	1.35
TATCGTAG	0.359
AAGCGCTC	0.641

Sequence	relative CpG methylation activity
CTTCGGCA	1.97
AAGCGTAA	0.489
GCACGCCG	1.29
TCCCGCGG	0.667
TTTCGCCT	1.44
ATTCGGTG	1.11
TTCCGGAA	0.997
AACCGCCT	0.415
GGTCGCGT	0.3
AGCCGTGT	0.0963
AATCGCGG	0.474
CCACGATT	1.65
AAACGAGG	1.63
ACACGTGA	0.622
CAACGATG	1.43
CATCGTCA	0.986
GAGCGTGG	0.328
GGTCGTAC	0.657
GATCGTAA	0.184
CTCCGTGG	0.512
CTGCGGCT	1.47
GTACGCTC	1.53
ATGCGTGG	0.444
ATCCGTGA	0.44
GTCCGCTC	1.52

Sequence	relative CpG methylation activity
GAGCGGCA	1.26
TGCCGCTG	0.266
GATCGCCG	0.81
GGTCGCCC	0.657
CACCGAGC	1.56
GTTCGATG	1.14
AGACGTGG	0.566
CCACGCTG	0.969
CCCCGTCT	1.06
ACGCGAAC	1.22
TGCCGCAA	0.238
CCCCGACA	1.52
TGACGGCT	1.37
TCACGCGG	0.996
GTTCGCTC	1.05
TAACGTCT	1.15
CCTCGTGT	0.0862
GGACGCGT	1.09
GACCGCTT	0.497
